Results on 53 compounds are retold here after PubChem BioAssay AID1346428 (National Center for Advancing Translational Sciences (NCATS), 2018).

Hit rate of the full screen: of about 48,000 compounds, about 1,200 (2.5%) were called active. About 2% were inconclusive and are not listed.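 How the source made its calls: active means activation of at least 60% and not above a set upper limit (about 1 call in 100 departs from these limits); inconclusive means activation of 40% to 60%, or above that upper limit; inactive means activation under 40%.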 This is one part of the list.

UniProt O75388, sequence (O75388 whole entry, looked up): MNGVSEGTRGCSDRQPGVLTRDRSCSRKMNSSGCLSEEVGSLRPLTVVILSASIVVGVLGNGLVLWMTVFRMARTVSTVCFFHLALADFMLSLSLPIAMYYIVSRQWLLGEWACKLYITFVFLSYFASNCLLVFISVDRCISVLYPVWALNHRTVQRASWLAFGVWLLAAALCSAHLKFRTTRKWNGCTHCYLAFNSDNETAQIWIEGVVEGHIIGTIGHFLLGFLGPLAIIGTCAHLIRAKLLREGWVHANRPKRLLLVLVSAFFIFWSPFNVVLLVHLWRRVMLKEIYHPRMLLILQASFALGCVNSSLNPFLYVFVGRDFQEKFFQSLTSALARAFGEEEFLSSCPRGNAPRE

The target in this experiment is Probable G-protein coupled receptor 32 (Homo sapiens) (UniProt O75388). Kind of experiment: qHTS for Agonists of Human Resolvin D1 Receptor DRV1. Further: 0% is about no effect. Conditions: CHO-K1 GPR32 beta-arrestin PathHunter luminescence, 90 min; at 76.9 µM; hits give high values; zero percent set by DMSO-only wells. The procedure, abridged:
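CHO-K1 cells stably expressing ProLink-tagged GPR32 and Enzyme Activator-tagged beta-arrestin were seeded at 2,500 cells/well overnight, exposed to compounds for 90 min at 37 °C, then read by beta-Gal complementation chemiluminescence after 1 h detection reagent.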
With `COc1ccccc1NC(=O)CCCOc1cc(=O)n(C)c2ccccc12`, the activation is inactive: 0.253%.

On to `CCc1ccccc1NC(=O)c1cc(S(=O)(=O)N(CC)c2ccccc2)ccc1F`, for which the activation is inactive: -22.4%. In the case of `COc1ccc(-c2nc(C)c(CCNC(=O)C(=O)Nc3cccc(F)c3)s2)cc1OC` it was inactive: 19.8%; in that of `COc1ccc(CCNC(=O)c2nn(-c3ccc(C)cc3)c(=O)c3c2c2ccccc2n3C)cc1OC`, inactive: 14.1%; in that of `O=C(CC1N=C2c3ccccc3N=C(SCC(=O)Nc3cccc(C(F)(F)F)c3)N2C1=O)NCc1cccs1` (stereo not drawn), inactive: -19.9%. In the case of `CCc1ccccc1NC(=O)Nc1nnc(N2CCCC2)s1` it was inactive: -0.636%; in that of `CCc1ccc(CN(Cc2ccco2)C(=O)c2ccccc2Cl)cc1`, inactive: -22%; in that of `CCOC(=O)CCn1nc(-c2ccc(C)cc2)c2ccccc2c1=O`, inactive: 10.6%. As to `Cc1ccc(C)c(Cn2c(=O)n(Cc3ccccc3)c(=O)c3c(C)c(C)sc32)c1`, the activation is inactive: -15.3%. Take `Cc1ccc(C(=O)COC(=O)c2cc(-c3ccccc3)nc3ccccc23)cc1C`: the activation is inactive: -9.34%. Next, `COc1cc(NC(=O)Cn2c(=O)n(Cc3ccccc3OC)c(=O)c3cccnc32)cc(OC)c1`: inactive: -0.717%; `Cc1ccc(C)c(N2CCN(S(=O)(=O)c3ccc4oc(=O)c5ncn(C)c5c4c3)CC2)c1`: inactive: -2.93%. For the compound `Cc1ccc(S(=O)(=O)c2nnn3c2nc(NCc2ccc(F)cc2)c2sccc23)cc1`, the activation is inactive: -15.3%. For the compound `CCCNC(=O)c1ccc2c(c1)N(Cc1cccc(C)c1)C(=O)c1ccccc1S2`, the activation is inactive: -37.8%. Next, `COc1ccc(NC(=O)CCN2CCN(c3cccc(Cl)c3)CC2)cc1`: inactive: 47%; `Cc1ccc(Cn2c(=O)n(CCCCC(=O)NCCc3ccc(Cl)cc3)c(=O)c3ccccc32)cc1`: inactive: 5.61%.

Consider `Cn1c(=O)c2c(n3c4ccccc4nc13)NC(=O)CC2c1ccccc1F` (stereo not drawn), for which the activation is inactive: 9.85%.

For the compound `CC1CCc2c(sc3nnn(Cc4ccc(F)cc4)c(=O)c23)C1` (stereo not drawn), the activation is inactive: -5.22%. Next, `O=C(NCc1ccccc1)c1cc(-c2cccc(Cl)c2)on1`: inactive: 1.76%. Regarding `Cc1cc(C)cc(OCC(=O)NCC(c2ccc(Cl)cc2)N2CCCCC2)c1` (stereo not drawn), the activation is inactive: -43%.

With `COc1ccc(S(=O)(=O)N2CCN(c3ccc(F)cc3)CC2)cc1-c1noc(C)n1`, the activation was inactive: -13.1%. On to `CCc1nnc2c(Nc3ccc(Br)c(C)c3)nc3ccccc3n12`, for which the activation was inactive: -2.67%. Turning to `COc1ccc(OC)c(N(CC(=O)NCc2ccccc2)S(=O)(=O)c2ccccc2)c1`, the activation is inactive: -8.02%. `CCc1ccccc1NC(=O)Cn1nnc(C(=O)OC)c1C(=O)OC`: the activation is inactive: 15.9%. Next, `CCN(CC)S(=O)(=O)c1ccc2c(c1)N(CC(=O)Nc1c(C)cccc1C)C(=O)CO2`: inactive: -17.4%; `COC(=O)c1ccc(NC(=O)CC2C(=O)N(c3ccc(Cl)cc3)C(=O)N2Cc2cccs2)cc1` (stereo not drawn): inactive: -24.1%. With `COc1ccc(NC(=O)CSc2ncc(-c3ccc(Cl)cc3)[nH]2)cc1OC`, the activation was inactive: -9.37%.

Take `CCc1ccc(NCc2cc3cc4c(cc3n(CC(=O)Nc3ccc(Cl)cc3)c2=O)OCO4)cc1`: the activation is inactive: -39.8%.

Consider `COc1ccccc1CCNC(=O)c1ccc2c(c1)c(C)c(C)n2C`, for which the activation is inactive: -19.8%. Regarding `COC(=O)c1cc(NC(=O)CCc2c(C)nc3c4c(C)cc(C)nc4nn3c2C)cc(C(=O)OC)c1`, the activation is inactive: -2.04%.

Consider `Cc1cc(S(=O)(=O)Nc2cccc(C(=O)O)c2)c(C)c(S(=O)(=O)c2ccccc2)c1`, for which the activation is inactive: -6.1%.

For the compound `CCOC(=O)c1sc(N2C(=O)c3oc4cc(C)c(C)cc4c(=O)c3C2c2cccc(O)c2)nc1C` (stereo not drawn), the activation is inactive: 0.191%. Next, `CCOC(=O)c1sc2ccccc2c1S(=O)(=O)Nc1ccc(N(C)C)cc1`: inactive: -12.7%. Consider `COc1ccccc1CNC(=O)c1c[nH]c2ccc(S(=O)(=O)Nc3cc(C)cc(C)c3)cc2c1=O`, for which the activation is inactive: -14%. Turning to `CCCOc1ccc(CNC(=O)CCCn2ncn3c(cc4sc(CC)cc43)c2=O)cc1`, the activation is inactive: 7.2%. Next, `Cc1ccc(-c2cc(C(=O)Nc3ccc(SC(F)F)cc3)no2)cc1F`: inactive: 9.25%; `COc1cccc(NC(=O)CCC(=O)N2Cc3ccccc3Oc3ncccc32)c1`: inactive: -15.2%. Regarding `CCNS(=O)(=O)c1ccc(NC(=O)CSc2nc(-c3ccco3)cc(C(F)(F)F)n2)cc1`, the activation is inactive: -24.7%.

On to `CCCOc1ccc(NC(=O)CC2C(=O)N(c3ccccc3)C(=O)N2Cc2ccco2)cc1` (stereo not drawn), for which the activation is inactive: -12.8%. Regarding `Cc1ccc(CNC(=O)CSc2nc3ccsc3c(=O)n2Cc2ccccc2F)cc1`, the activation is inactive: -8.45%. Regarding `Cc1cccc(Nc2nnc(-c3ccc(C)c(S(=O)(=O)N4CCCCC4)c3)c3ccccc23)c1`, the activation is inactive: 22%. Next, `Cc1ccc(-n2cc(-c3ccccc3)c3c(N4CCCCC4)ncnc32)cc1`: inactive: -20.2%; `CC(C)OC(=O)c1cccc(NC(=O)Cn2nnc3sc4c(c3c2=O)CCCC4)c1`: inactive: -35.1%; `Cc1ccc(S(=O)(=O)N2CCN(C(=O)c3cc(-c4ccc(Br)cc4)n[nH]3)CC2)c(C)c1`: inactive: 9.41%. In the case of `CCN(CC)c1ccc(NC(=O)c2cccn2-c2nnc(N3CCCCC3)s2)c(C)c1` it was active: 76.5%; in that of `N#CC(C#N)=C(N)/C(C#N)=C/c1ccc(O)cc1`, inactive: -10.9%; in that of `Cc1c(Cl)cccc1-n1ncc(C(=O)N2CCN(c3ncccn3)CC2)c1C1CCN(C(=O)OC(C)(C)C)CC1`, inactive: -12.5%.

For `Cc1ccc(NC(=O)C(Cc2ccccc2)NS(=O)(=O)c2ccc3c(c2)c(=O)n(C)c(=O)n3C)c(C)c1` (stereo not drawn), the activation is inactive: -13.4%. Take `CC(Sc1nnc2ccc3ccccc3n12)C(=O)Nc1ccc(Cl)cc1` (stereo not drawn): the activation is inactive: 11.2%. With `COc1cccc(CCNC(=O)c2c(O)nc3c(C)cccn3c2=O)c1`, the activation was inactive: -5.58%. In the case of `CCCc1cc(=O)[nH]c(Nc2cc(C)ccc2OC)n1` it was inactive: -17.2%; in that of `CCc1ccc(NC(=O)CC2C(=O)N(c3cccc(OC)c3)C(=O)N2Cc2ccc(F)cc2)cc1` (stereo not drawn), inactive: -24.9%. In the case of `COc1cc2nc(N3CCN(C(=O)c4ccco4)CC3)nc(N)c2cc1OC` it was inactive: 3.05%.
